Common to all, as to experiment: microbe, parasite or virus in culture
One assay concerns wt-E. coli BW25113. The note with it: Escherichia coli.
The test system of the next assay is V^R-E. faecium DSM-17050. The note with it: Enterococcus faecium, DSM17050.
The subject of a further assay is E. faecium DSM-20477. The note with it: Enterococcus faecium, DSM20477.

Values after ≈ are worked out from the molar mass of the structure shown. Bounds are passed on as bounds.

As for `CCC/C(C)=C/C=C(\C)C(=O)c1c(O)cc([C@H](C)CC/C=C/NC(=O)OC)oc1=O` [MYX A (1), myxopyronins A], the MIC against wt-E. coli BW25113, in the assay on V^R-E. faecium DSM-17050 and against E. faecium DSM-20477 was > 64 µg/mL throughout.

Regarding `COC(=O)N/C=C/CC[C@@H](C)c1cc(O)c(C(=O)/C(C)=C/C=C(\C)CCC(F)(F)F)c(=O)o1` [MYX (8)], the MIC in the assay with wt-E. coli BW25113, in the assay with V^R-E. faecium DSM-17050 and against E. faecium DSM-20477 was > 64 µg/mL throughout.

As to `CO[C@H]1/C=C/O[C@@]2(C)Oc3c(C)c(O)c4c(O)c(c(/C=N/N5CCN(C)CC5)c(O)c4c3C2=O)NC(=O)/C(C)=C\C=C\[C@H](C)[C@H](O)[C@@H](C)[C@@H](O)[C@@H](C)[C@H](OC(C)=O)[C@@H]1C` [rifampin], the MIC in the assay on wt-E. coli BW25113 is 16 µg/mL (≈ 19.4 µM); against V^R-E. faecium DSM-17050, 0.03 µg/mL (≈ 0.0365 µM); in the assay with E. faecium DSM-20477 it was 8 to 16 µg/mL (≈ 9.72 to 19.4 µM).
